# Measurements as given in publication PMC4336329 (PLoS ONE, 2015).
# The whole screen tested about 310,000 compounds, of which about 14,000 (4.5%) showed an effect of 50% or more. The effect is printed as a negative number. The list shows a part of the results.
# Molecular target: human ether-à-go-go-related gene (hERG) potassium channel (human, UniProt Q12809)
# Assay: primary screen, population patch clamp on CHO cells stably expressing hERG
# 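Also: peak tail current of the secondary pulse compared with the same well before compound.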
# Sequence of human ether-à-go-go-related gene (hERG) potassium channel (Q12809 whole entry, looked up): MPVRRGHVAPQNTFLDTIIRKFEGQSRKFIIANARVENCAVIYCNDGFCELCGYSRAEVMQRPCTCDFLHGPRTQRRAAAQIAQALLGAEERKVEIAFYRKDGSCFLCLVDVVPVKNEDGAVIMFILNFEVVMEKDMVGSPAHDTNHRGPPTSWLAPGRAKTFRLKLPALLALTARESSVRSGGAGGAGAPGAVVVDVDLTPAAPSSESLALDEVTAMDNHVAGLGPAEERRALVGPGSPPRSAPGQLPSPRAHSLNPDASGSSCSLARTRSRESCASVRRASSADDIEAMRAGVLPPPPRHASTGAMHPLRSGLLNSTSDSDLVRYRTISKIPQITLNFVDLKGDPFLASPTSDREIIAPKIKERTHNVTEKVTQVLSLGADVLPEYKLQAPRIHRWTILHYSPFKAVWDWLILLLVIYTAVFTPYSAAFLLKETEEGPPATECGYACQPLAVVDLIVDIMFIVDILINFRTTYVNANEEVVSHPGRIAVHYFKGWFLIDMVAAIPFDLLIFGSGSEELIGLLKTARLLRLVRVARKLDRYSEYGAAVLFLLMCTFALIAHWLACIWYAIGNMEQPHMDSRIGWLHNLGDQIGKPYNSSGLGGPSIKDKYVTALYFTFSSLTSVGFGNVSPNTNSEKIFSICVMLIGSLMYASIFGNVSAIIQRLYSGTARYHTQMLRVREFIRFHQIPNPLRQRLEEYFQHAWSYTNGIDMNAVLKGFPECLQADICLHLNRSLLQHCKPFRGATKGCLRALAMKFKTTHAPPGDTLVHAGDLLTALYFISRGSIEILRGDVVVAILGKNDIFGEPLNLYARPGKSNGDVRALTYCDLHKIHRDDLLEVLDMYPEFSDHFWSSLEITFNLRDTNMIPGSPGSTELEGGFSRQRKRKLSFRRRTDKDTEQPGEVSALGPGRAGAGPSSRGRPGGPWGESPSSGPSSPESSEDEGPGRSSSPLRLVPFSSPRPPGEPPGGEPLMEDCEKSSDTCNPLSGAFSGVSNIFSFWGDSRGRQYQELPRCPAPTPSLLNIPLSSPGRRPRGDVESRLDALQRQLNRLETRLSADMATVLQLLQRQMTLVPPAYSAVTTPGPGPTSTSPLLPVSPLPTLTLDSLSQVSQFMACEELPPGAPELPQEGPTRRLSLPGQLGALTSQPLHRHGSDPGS
row,Compound,"hERG current change (%, negative = inhibition) at 10uM"
1,Fc1cc(F)cc(NC(=S)N2CCN(c3ncccn3)CC2)c1,-10.4%
2,CCOc1ccc(S(=O)(=O)N(C)c2ccc(OCC(=O)NCC3CCCO3)cc2)cc1 (stereo not shown),-16.9%
3,COc1ccc(OC)c(NC(=O)c2ccno2)c1,26.7%
4,O=C1C2C3CCC(CC3)C2C(=O)N1c1ccccc1 (stereo not shown),23.9%
5,O=C1N=C(N2CCN(c3ccccc3)CC2)S/C1=C/c1ccco1,-53.8%
6,COc1ccc(S(=O)(=O)N2CCCC2CNC(=O)C(=O)Nc2ccc(C)cc2)cc1 (stereo not shown),-27.4%
7,Cc1cc(C(F)(F)F)nc(CCNC(=O)C2CCC(=O)N(Cc3cccc(F)c3)C2)n1 (stereo not shown),-5.78%
8,O=C(CN1C(=O)COc2ccc(Cl)cc21)Nc1ccccn1,10%
9,COC(=O)CSc1nnc(-c2ccccn2)n1Cc1ccco1,-13.8%
10,O=C(Nc1nccs1)c1cccc(S(=O)(=O)N2CCOCC2)c1,-9.33%
11,O=C1N=C(N2CCCCC2)S/C1=C\c1ccncc1,-5.21%
12,Br.Clc1ccc2nc(CN3CCCCCC3)cn2c1,-46.7%
13,Cc1ccc2nsnc2c1NC(=O)c1cccc([N+](=O)[O-])c1,0.518%
14,Cc1ccc(S(=O)(=O)N(Cc2ccc(Cl)cc2)c2ccccc2C(=O)NCc2ccco2)cc1,-10.8%
15,Cc1nc(C)c(C(=O)N/N=C/c2ccco2)s1,6.04%
16,COC(=O)C(F)(Sc1c(C)n(C)n(-c2ccccc2)c1=O)C(F)(F)F (stereo not shown),-9.14%
17,Cc1ccncc1C(N)=O,13.3%
18,Cc1ccc(C(=O)c2cn[nH]c2-c2cc(Cl)ccc2O)cc1,3.03%
19,CCOC(=O)c1c(C)[nH]c(C(=O)OCC(=O)NC(C)(C)C)c1C,5.81%
20,CC(=O)c1cccc(Nc2nc(N3CCOCC3)nc(N3CCOCC3)n2)c1.Cl,13.7%
21,CCc1nnc(NC(=O)c2c(OC)cccc2OC)s1,6.71%
22,COC(=O)c1sccc1NC(=O)c1cccnc1,-10.3%

row,Compound,"hERG current change (%, negative = inhibition) at 10uM"
1,CC(=O)c1cccc(Nc2cc(C)nc3ccc(C)cc23)c1.Cl,-65.2%
2,O=C(CCN1C(=O)/C(=C/c2ccccc2Cl)SC1=S)N1CCCC1,10.6%
3,CCCCNC(=O)CCn1c(=O)c2ccccc2n(Cc2ccc(Cl)cc2)c1=O,-9.17%
4,COc1ccc(CNC(=O)[C@@H](C)NC(=O)C2CCN(C(=O)[C@@H](N)CCSC)CC2)cc1,17.5%
5,Clc1cccc(N2CCN(Cc3nc(-c4ccccc4)no3)CC2)c1,-12%
6,CC1(C)CC(=O)C(C=NCC2CCN(C(=O)Nc3ccc(Cl)c(Cl)c3)CC2)=C(O)C1,-23.8%
7,Cn1cc(CN2C[C@]3(C)C[C@H]2CC(C)(C)C3)c(-c2ccc3c(c2)OCCO3)n1,-4.94%
8,CC(C)n1cc(C(=O)N(CC(=O)NC(C)(C)C)Cc2ccccc2)cn1,6.03%
9,c1ccc(-n2nnc3c(N4CCOCC4)ncnc32)cc1,-16.8%
10,O=C(O)C1(O)C[C@H](O)C(O)[C@@H](O)C1 (stereo partly shown),13.9%
11,COC(=O)c1c(C(=O)OC)c(-c2ccc(OC)cc2)n2c1CCC2,6.63%
12,COc1c(Br)cc(C(N)=O)cc1OCc1ccccc1,10.4%
13,COc1cc(C=O)ccc1OCC(=O)Nc1cccc(S(=O)(=O)N(C)c2ccccc2)c1,-30.1%
14,O=C(Cn1cnc2c(oc3ccccc32)c1=O)NCCc1ccccc1,-3.66%
15,Cc1ccccc1NC(=O)N1C2CCC1CC(O)(c1cccnc1)C2 (stereo not shown),-3.64%
16,CN(C)/C=N/n1cnc2ccccc2c1=O,16.8%
17,Cc1cc(C)c(NC(=O)c2ccccc2CCc2ccccc2)c(C)c1,3.43%
18,COc1ccccc1OCCNC1CCCC1,-5.7%
19,Cc1[nH]n(C)c(=O)c1C(=O)c1c(-c2ccccc2Cl)noc1C,1.23%
20,Cn1cnnc1SCC(=O)Nc1ccc(S(N)(=O)=O)cc1,17.5%
21,Cc1ccc(S(=O)(=O)NCCCN2CCCC2)cc1,8.31%
22,O=C(Cn1cnc2ccccc21)NCCCN1CCOCC1,-10.3%

row,Compound,"hERG current change (%, negative = inhibition) at 10uM"
1,O=C(CCn1nc(-c2ccc(Cl)cc2)c2ccccc2c1=O)NCC1CCCO1 (stereo not shown),-32%
2,CCOCCCN(CC(=O)NC1CCCC1)C(=O)C(=O)Nc1ccc2c(c1)OCCO2,14.9%
3,Cn1c(-c2ccccc2)cnc1NCc1ccc(-c2ccccc2)cc1.O=C(O)C(=O)O,-10.4%
4,O=C(Nc1nnc(-c2ccc(Br)cc2)o1)C1=COCCO1,3.07%
5,CCCCCC(=O)NC(=S)Nc1ccc(Br)cc1C,18.5%
6,C=CCN1C(=O)[C@]2(c3ccccc31)C1CCCC=C1C(C#N)=C(N)C2(C#N)C#N (stereo partly shown),-4.68%
7,CCOC(=O)c1cccc(-n2c(C)cc(C=O)c2C)c1,2.46%
8,CC(C)(C)n1cc(C(=O)c2ccc3ccccc3c2O)cn1,12.6%
9,CC(=O)Nc1ccc(S(=O)(=O)NC(CC(=O)NCCc2ccccc2)C(C)C)cc1 (stereo not shown),8.98%
10,CC1CCC(NC(=O)CCS(=O)(=O)c2ccc3c(c2)NC(=O)C(C)S3)CC1 (stereo not shown),4.25%
11,O=C(CN(Cc1ccc(F)cc1)C(=O)CNS(=O)(=O)c1ccc(Cl)cc1)NCC1CCCO1 (stereo not shown),-36.8%
12,COC(=O)c1c(C)[nH]c(C(=O)OCc2ccc(F)cc2)c1C,6.58%
13,COCCCNC(=O)Cn1cc(/C=C(\C#N)C(=O)NC2CCCC2)c2ccccc21,-6.65%
14,CCC1(N(C(C)=O)c2ccc(OC)cc2)C(=O)c2ccccc2C1=O,8.56%
15,CCn1c(COc2ccc(=O)n(-c3ccccc3)n2)nnc1SCC(=O)OC,9.02%
16,COCC(=O)Oc1c(S(=O)(=O)c2ccc(C)cc2)c(C)nn1-c1ccccc1,-0.197%
17,CCN1CCN(S(=O)(=O)c2cccc(S(=O)(=O)N3CCOCC3)c2)CC1,14%
18,O=C(OCCCOC(=O)c1ccc([N+](=O)[O-])o1)c1ccc([N+](=O)[O-])o1,11%
19,O=[N+]([O-])c1ccc(CN2CCCCCC2)cc1,-32.8%
20,CC(=O)N1CCC2(CC1)C(C#N)=C(N)Oc1c2sc2nc(C)cc(C)c12,-3.03%
21,Cc1nn(-c2ccc(F)cc2)c(Cl)c1/C=N/NC(=O)c1ccc(O)cc1,38.3%
22,O=C(NCc1nc2ccccc2[nH]1)C1=C[C@@H](c2ccc(C(F)(F)F)cc2)C[C@@H](OCCCCO)O1,-38.7%

row,Compound,"hERG current change (%, negative = inhibition) at 10uM"
1,CC1(C)OC(=O)C=C[C@]2(C)[C@H]3CC[C@@]4(C)[C@H](C(=O)O)OC(=O)[C@H]5O[C@]54[C@]3(C)C(=O)C[C@@H]12,17.9%
2,Cc1cc(C(=O)NC(=S)Nc2ccccc2N2CCCC2)ccc1[N+](=O)[O-],4.9%
3,Cc1csc(N/N=C/c2ccccn2)n1,20.2%
4,COC(C(=O)Nc1ccc(S(=O)(=O)N2CCCCC2)cc1)c1ccccc1 (stereo not shown),-15.3%
5,CC(C)(C)c1ccc(S(=O)(=O)N2CCCCC2)cc1,-20%
6,COc1ccc(/C(C)=N/NC(=O)OC(C)(C)C)cc1[N+](=O)[O-],5.01%
7,CCOc1ccc(C(C)=O)cc1CSc1nnnn1-c1ccc(O)cc1,-32.6%
8,COc1ccc(OC)c(S(=O)(=O)N2CCCC(C(=O)NCc3ccco3)C2)c1 (stereo not shown),-5.29%
9,Cn1cccc1/C=C1\SC(=S)N(NC(=O)c2ccccc2Cl)C1=O,1.91%
10,CC1CCN(Cc2ccc(NC(=O)CC3Oc4ccccc4NC3=O)cc2)CC1 (stereo not shown),-11.5%
11,Cc1c(Nc2c3ccccc3nc3ccccc23)c(=O)n(-c2ccccc2)n1C,-71%
12,C/C(=N\NC(=O)c1ccccc1[N+](=O)[O-])c1c(O)cc(C)oc1=O,28.6%
13,CCOc1ccc(S(=O)(=O)c2c(C(=O)c3ccccc3)cnc3cc4c(cc23)OCCO4)cc1,1.93%
14,Cc1ccc(-n2c(SCC(=O)Nc3cccc(S(N)(=O)=O)c3)nc3ccccc32)cc1,-12.7%
15,COc1ccc(N2C(=O)c3ccccc3NC2c2ccc(OC)c(CSc3ccccn3)c2)cc1 (stereo not shown),2.62%
16,Fc1ccc(-c2oncc2-c2nnnn2-c2ccccc2)cc1F,-15.4%
17,Cc1cc(C(=O)NCC(=O)OCC(=O)NCC2CCCO2)ccc1[N+](=O)[O-] (stereo not shown),15.3%
18,C=CCNC(=O)/C(=C/c1cn(-c2ccccc2)nc1-c1cccc([N+](=O)[O-])c1)NC(=O)c1ccccc1,-3.58%
19,O=C1CSC(c2cccnc2)N1CC1CC1 (stereo not shown),5.92%
20,Cn1c(N)c(C(=O)CSc2n[nH]c(-c3ccccc3)n2)c(=O)n(C)c1=O,1.13%
21,O=C(CSc1ncccn1)N1CCN(S(=O)(=O)c2ccccc2)CC1,-13.3%
22,CCC(C)NC(=O)CO/N=C/c1ccccc1OC(F)F (stereo not shown),-5.7%
